# Measured values published in PubChem BioAssay AID743279 (National Center for Advancing Translational Sciences (NCATS), 2014).
# About 17,000 (4.7%) of roughly 360,000 compounds were called active. The inconclusive results got no clear call from the source; some entries with a clear call stand among them for comparison. Rule as the data show it: active = activity change below about -50%; inconclusive = mostly about -30% to -49%; inactive = weaker than that.
# Test: qHTS for Inhibitors of Inflammasome Signaling: IL-1-beta AlphaLISA Primary Screen
# Details: THP-1 LPS/ATP IL-1B secretion, 16 h; at 57.5 µM, active compounds read low
# How it was run: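 Secreted IL-1B measured by AlphaLISA bead assay after 16 h compound exposure of THP-1 cells; compounds (final up to 57.5 uM) added 1 h before LPS (250 ng/mL) and ATP (1.25 mM) stimulation; lower signal means less secretion.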
# % is scaled to controls: 0 for no effect and ±100 for the full control effect.
row,Structure (SMILES),activity change
1,C[C@@H]1CCCCO[C@@H](CN(C)S(=O)(=O)c2cccs2)[C@@H](C)CN([C@H](C)CO)C(=O)c2cc(NS(=O)(=O)c3ccccc3)ccc2O1,inconclusive: -32.8%
2,Cc1ccc(S(=O)(=O)[N-]c2nc3ccccc3nc2-n2cc[n+](Cc3ccccc3)c2)cc1,inconclusive: -36.4%
3,CC1(C(=O)NCc2cccc(C(F)(F)F)c2)CCN1Cc1cc2ccccc2o1 (stereo not given),inconclusive: -42.7%
4,COc1ccccc1/C=C/C=N/NC(=O)CN1CCN(S(=O)(=O)c2ccc(C)cc2)CC1,inconclusive: -41.1%
5,CC(=O)Nc1cc(C(F)(F)F)ccc1Oc1cccc(Br)c1,inconclusive: -31.9%
6,O=C(Nc1ccn(Cc2ccccc2)n1)c1cccc(Cn2cc([N+](=O)[O-])cn2)c1,inconclusive: -30.6%
7,Cc1ccc(OCC(O)Cn2c(=N)n(CCN3CCCCC3)c3ccccc32)cc1 (stereo not given),active: -50%
8,COC1=Nc2ccccc2/C=C\c2ccccc21,inactive: 0.854%
9,COc1ccc(OC)c(NC(=O)C(C#N)=Cc2ccco2)c1,inactive: 2.86%
10,CCCN(CCC)CCCNC(=S)Nc1ccc2nc3n(c(=O)c2c1)CCCCC3,inconclusive: -36%
11,CCCC(=O)N(CCN(Cc1ccccc1)C(=O)CCC)Cc1ccccc1,inactive: -17.1%
12,COc1ccc(-c2nnn(Cc3nc(N)nc(N4CCCCC4)n3)n2)cc1,inconclusive: -40.4%
13,O=C1C=C(N2CCCCC2)C2(CCCCC2)O1,inactive: 5.72%
14,CC(C)(Oc1ccc(Cl)cc1)C(=O)NCC(c1ccco1)N1CCCCC1 (stereo not given),inconclusive: -30.5%
15,CN(C)S(=O)(=O)c1cccc(C(=O)Nc2cc(Cl)ccc2O)c1,inactive: -13%
16,O=C(CSC1=Nc2ccccc2C2CC=NN12)Nc1ccc2c(c1)OCO2 (stereo not given),inconclusive: -39.5%
17,CCOC(=O)c1nnn(CC(=O)Nc2cccc(OC)c2)c1C(=O)OCC,inconclusive: -42.4%
18,C=CCOc1ccc(/C=N/NC(=O)c2c(C)nc3ccc(Cl)cn23)cc1,inactive: 33.7%
19,CC1CCCN(CC(O)COc2ccc(-c3ccccc3)cc2)C1 (stereo not given),inconclusive: -42.9%
20,CCCc1cc(=O)oc2cc(C)cc(OC(C)C(=O)NCC(O)c3ccccc3)c12 (stereo not given),inconclusive: -31.6%
21,C/C(=N/NC(=O)c1ccc(Br)o1)c1cccc(NC(=O)c2ccc(F)cc2)c1,inconclusive: -37.4%
22,CC1CCN(CC(=O)Nc2cccc(C(=O)Nc3cccc(C(F)(F)F)c3)c2)CC1,active: -74.9%

row,Structure (SMILES),activity change
1,CCN1C(=NCCOC)N[C@@H](c2cccc(C(F)(F)F)c2)C(C(=O)OC)=C1C,inconclusive: -36.1%
2,CC(C)(C)OC(=O)N/N=C\c1ccc(OC(=O)c2cccs2)cc1,inconclusive: -46.2%
3,Nc1ccc(C(=O)NCCCSc2ccccc2)cc1[N+](=O)[O-],inactive: 2.49%
4,O=C(CNc1ccc(Cl)cc1)NNC(=S)NCc1ccccc1,inconclusive: -36%
5,CCCCCc1c(-c2ccc(F)cc2F)ncn1CCc1ccccc1OC,active: -99.9%
6,COc1ccc(Cl)cc1NC(=O)CN(C)C(=O)c1cc2c(s1)CCCC2,inconclusive: -33.9%
7,O=C(NCc1ccccn1)Nc1cccc(Cl)c1Cl,inconclusive: -40.1%
8,CC(C)c1ccc(NC(=S)NCc2ccc3c(c2)OCO3)cc1,inconclusive: -41.8%
9,Cc1cc(CN2CCCC(CNC(=O)c3ccc(F)cc3)C2)cc(C)c1O (stereo not given),inconclusive: -32.4%
10,CC1(Oc2ccc(Cl)cc2)CCN(Cc2csc3ccccc23)C1 (stereo not given),inactive: 17.7%
11,CC1=C(C(=O)Nc2ccc(C(=O)NC(C)c3ccccc3)cc2)SCCO1 (stereo not given),inconclusive: -39.5%
12,COC(=O)[C@H](Cc1ccccc1)NC(=O)Cn1cnc2c(OCc3ccccc3)ncnc21,inconclusive: -34%
13,Cc1ccc(Oc2cc(NC(=O)CCCn3nc([N+](=O)[O-])c(Cl)c3C)cc([N+](=O)[O-])c2)cc1,inactive: 37.9%
14,O=C(CSc1nnc2scc(-c3ccccc3)n12)Nc1nsc(-c2ccccc2)n1,inconclusive: -31.4%
15,CC(=O)N(C)c1ccc(NC(=O)N2CCOCC2)cc1,inactive: 18.7%
16,Cc1ccc(F)cc1-c1nc(NC(C)C)nc2cc(-c3ccccc3)sc12,inconclusive: -35.1%
17,CC1CCN(c2c(NCc3ccc(C(=O)N(C)C4CCCCC4)cc3)c(=O)c2=O)CC1,inconclusive: -36.7%
18,CC(=O)N(C)c1ccc(N=Nc2c(C)[nH]n(C(N)=S)c2=O)cc1,inactive: -25.8%
19,COCC(=O)NCCNc1nc2ccc(C)cc2cc1C,inconclusive: -38.1%
20,Cc1ccc(N(CC(=O)Nc2cc(Cl)ccc2Oc2ccccc2)S(C)(=O)=O)c(C)c1,inconclusive: -39.4%
21,COCCn1c(SCC(=O)c2c(-c3ccccc3)n(C)c3ccccc23)nnc1-c1ccncc1,inconclusive: -31.4%
22,CCOC(=O)c1sc(NC(=O)CCN2CCC(C)CC2)c(C(=O)OCC)c1C,inactive: -16.1%

row,Structure (SMILES),activity change
1,O=C(NCCc1ccccc1)Nc1ccc2c(c1)OCO2,inactive: 5.71%
2,CCC(C)(C)C1CCC2(CC1)NC(=O)N(CC(=O)NCCCc1ccccc1)C2=O (stereo not given),inconclusive: -33.3%
3,COc1cccc(OC)c1CN1CCCC(C(=O)c2ccccc2SC)C1 (stereo not given),inconclusive: -48.9%
4,O=c1[nH]c(C2CCN(S(=O)(=O)c3ccccc3C(F)(F)F)CC2)nc2c1nnn2Cc1cccc(F)c1,inconclusive: -45.6%
5,Cc1ccc(CN2CCC(Oc3cccc(C(=O)N(C)CCN(C)C)c3)CC2)cc1C,active: -65%
6,OCCCNc1cc(-c2ccnc(Nc3cccc(Cl)c3)n2)ccn1,active: -108%
7,COc1ccc(N2CCN(C(=O)Cc3ncc(C(F)(F)F)cc3Cl)CC2)cc1,inactive: 51.3%
8,Cc1ccc(CSc2nc3c(c(=O)[nH]2)C(c2ccncc2)C2=C(CCCC2=O)N3)cc1 (stereo not given),inconclusive: -35%
9,CCCNC(=O)c1cc(Cl)c(NC(=O)C2=CSCCO2)cc1OC,inconclusive: -44.1%
10,Cn1c(-c2cccc(F)c2)nc2c1c(=O)[nH]c(=O)n2Cc1ccccc1,inactive: 22.6%
11,CCN1CCN(C2=CC3=CC(=C(C#N)C#N)CCC3CC2)CC1 (stereo not given),inconclusive: -33.1%
12,Cc1ccc(C(=O)C(C)OC(=O)CN2C(=O)NC3(CCCC3)C2=O)cc1 (stereo not given),inactive: -6.85%
13,O=Cc1cc(Cl)ccc1OCCN1CCC(Cc2ccccc2)CC1,active: -92.9%
14,CCCC(O)(c1ccc(CC)cc1)C(CN1CCOCC1)c1ccccc1 (stereo not given),inconclusive: -37.1%
15,CSc1nc2ccc(NS(=O)(=O)c3cccc(Cl)c3Cl)cc2s1,inconclusive: -33%
16,COc1ccc2[nH]c3c(c2c1)CCN1C(=O)C(CC(=O)NCCC2=CCCCC2)C[C@H](C(=O)N2CCOCC2)[C@@]31CCC1CCCC1 (stereo not given in full),inactive: -2.02%
17,CCn1nc(NC(=O)c2ccncc2)c2cc3cc(C)ccc3nc21,inconclusive: -46.1%
18,COc1cc(NC(=O)c2cc(-c3cc(F)ccc3OC(C)C)n[nH]2)cc(OC)c1OC,inconclusive: -30.5%
19,O=C1C2C(c3ccccc3)CC=CC2[C@H](c2cccc([N+](=O)[O-])c2)N1Cc1ccccc1 (stereo not given in full),inactive: 0%
20,CC(=O)N1CCCC(N2CCN(c3cccc(C(F)(F)F)c3)CC2)C1 (stereo not given),inactive: -5.35%
21,CCN(CC)CC(=O)Nc1ccc2c(c1)N(C(=O)CN(CC)CC)c1ccccc1CC2,inconclusive: -43.6%
22,CC(C)(C)C(=O)NCCn1ccc2ccccc21,inconclusive: -34.7%

row,Structure (SMILES),activity change
1,CN(C)CCOc1ccc(-c2c(-c3ccccc3)sc3ccccc23)cc1,inconclusive: -44.7%
2,C/C(=N\NC(=O)c1cc(-c2ccc(Cl)s2)[nH]n1)c1ccncc1,inconclusive: -30.1%
3,CCOC(=O)C1(CCOc2ccccc2)CCN(Cc2cccc(OC)c2OC)CC1,active: -88.1%
4,COc1ccc(-c2csc(Nc3ccc(S(=O)(=O)Nc4cc(C)on4)cc3)n2)cc1C,inactive: 3.84%
5,Cc1ccc(O)c(-c2cc(C(=O)Nc3cccnc3)[nH]n2)c1,inconclusive: -36.2%
6,O=C(CCc1ccccn1)NC1CCCc2c1cnn2-c1ccc(F)cc1F (stereo not given),inactive: 0.274%
7,CC1(C)CC(=O)c2sc(NC(=O)c3ccco3)nc2C1,inactive: -9.93%
8,O=C(Oc1ccccc1)N1CCN(C(=O)c2ccco2)CC1,inconclusive: -42.1%
9,CSc1ccc(/C=C(\C#N)C(=O)Nc2cccc(C)c2)cc1,inconclusive: -33.2%
10,COC(=O)c1c(N)n(-c2ccc(NC(C)=O)cc2)c2nc3ccccc3nc12,active: -52.2%
11,CN(Cc1c(F)cccc1Cl)C(=O)CNC(=O)c1sc2ccccc2c1Cl,active: -51.8%
12,Cc1cc(C)c2cc(C#N)c(SCC(=O)Nc3ccc4c(c3)OCO4)nc2c1,inconclusive: -31.4%
13,CCOc1cc(OCC)cc(C(=O)NCCN2CCC(n3c(=O)[nH]c4ccccc43)CC2)c1,inconclusive: -43.2%
14,CC(Sc1nccn1C)C(=O)Nc1ccccc1 (stereo not given),inactive: 24.3%
15,CC1(C)CC(=O)c2c(nc(SCC(=O)Nc3nsc(-c4ccccc4)n3)c(C#N)c2-c2ccccc2)C1,inconclusive: -45.7%
16,CCN1CCN(CCC(=O)Nc2cccc(OC)c2)CC1,inactive: -11.6%
17,Cc1cc(OCc2cc(C(=O)NC3CCC3)no2)cc(C)c1Cl,inactive: 7.98%
18,CC(=O)Nc1nc2cccc([N+](=O)[O-])c2s1,inconclusive: -46%
19,Cc1ccc(NC(=O)CSc2nc3ccccc3c(=O)n2CCCC(=O)NCCCN2CCOCC2)cc1,inconclusive: -44.7%
